In all, about 360,000 compounds went through this assay and about 25,000 (6.9%) were called active. The shares of active, inactive and inconclusive entries below differ from those in the screen. The call rests on the fitted dose curve; in most records, active means well fitted inhibition curve with a large enough effect; inconclusive means small, poorly fitted or top-dose-only effect; inactive means flat fitted curve, though single readings scatter. Where the call is inconclusive, the potency comes from a doubtful curve fit.
biological target: Luciferin 4-monooxygenase (Photinus pyralis) (UniProt P08659); assay: qHTS profiling assay for firefly luciferase inhibitor/activator using purifed enzyme and Km concentrations of substrates (counterscreen for miR-21 project); conditions: purified FLuc, luminescence inhibition; activity change, negative = inhibition: at 57.5 µM (top of the series); further: nearly all actives have a fitted effect of over 55% in size;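 on activity change, negative = inhibition: plate controls were vehicle for no effect and reference inhibitor for full effect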
Sequence of UniProt P08659 (P08659 whole entry, looked up): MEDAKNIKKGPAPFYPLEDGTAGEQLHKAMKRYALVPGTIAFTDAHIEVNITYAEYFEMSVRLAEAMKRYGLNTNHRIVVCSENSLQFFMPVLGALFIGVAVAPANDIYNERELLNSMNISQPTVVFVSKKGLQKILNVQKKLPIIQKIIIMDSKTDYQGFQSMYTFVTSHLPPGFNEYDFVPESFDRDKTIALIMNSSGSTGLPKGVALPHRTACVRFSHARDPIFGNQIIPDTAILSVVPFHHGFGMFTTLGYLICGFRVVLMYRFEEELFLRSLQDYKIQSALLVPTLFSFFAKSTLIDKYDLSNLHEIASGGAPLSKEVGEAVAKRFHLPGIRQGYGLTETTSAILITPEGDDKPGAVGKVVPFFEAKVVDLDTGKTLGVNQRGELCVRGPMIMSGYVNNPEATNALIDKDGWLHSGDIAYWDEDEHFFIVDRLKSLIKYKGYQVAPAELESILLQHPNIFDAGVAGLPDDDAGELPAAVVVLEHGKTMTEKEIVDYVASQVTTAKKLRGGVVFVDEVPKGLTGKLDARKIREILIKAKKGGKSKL
Procedure, shortened: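 Biochemical qHTS of compounds, final roughly 60 µM downward over six points, against 10 nM purified firefly luciferase using Km concentrations of substrates (10 uM D-luciferin, 10 uM ATP) in Tris acetate pH 7.5 buffer; luminescence output.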
Potency means the concentration at half of the fitted maximal effect; tags describe the fitted curve by direction and shape.

Compound | activity change, negative = inhibition | Potency
COC(=O)c1ccc(NC(=O)COc2ccc3c(c2)OCO3)cc1 | inactive: 0.852% | 
N#CC(C(=O)Nc1ccccc1)=C1Nc2ccccc2N1 |  | active: 21.3 µM
CCOc1ccc2nc(SCC3CC3(Cl)Cl)[nH]c2c1 (stereo not given) |  | active: 7.57 µM
O=C(NC(=S)Nc1ccccn1)c1cc(-c2ccccc2)nc2ccccc12 |  | inconclusive: 10.7 µM [inhibitor, partial curve, poor fit]
COc1ccc(NC(=O)COc2cc(O)c3c(c2)OC(C)(C)CC3=O)cc1 |  | inconclusive: 19 µM [inhibitor, partial curve]
O=C(O)CCC(=O)NNC(=O)COc1ccc(Cl)cc1Cl |  | inconclusive: 23.9 µM [inhibitor, single point]
C/C=C/c1ccccc1OCc1ccc(C(=O)O)o1 | inactive: -14.5% | 
NC(=O)c1ccc(Nc2nnc(-c3ccc(O)cc3)c3ccccc23)cc1 |  | inconclusive: 42.6 µM [inhibitor, partial curve, poor fit]
O=c1cc(-c2ccc(Br)cc2)[nH][nH]1 |  | inconclusive: 26.9 µM [inhibitor, partial curve, poor fit]
COc1cc(/C=C/C(=O)OCC(=O)N2CCCc3ccccc32)ccc1OC(F)F | inactive: -0.397% | 
COc1ccc(C)cc1NC(=O)C(=O)NCC(c1cccnc1)N1CCN(c2ccccc2F)CC1 (stereo not given) |  | inconclusive: 16.9 µM [inhibitor, partial curve]
COc1cccc(C(=O)NNC(=O)c2ccccc2)c1 |  | inconclusive: 30.1 µM [inhibitor, single point]
CCCC[C@]12Cc3ccccc3[C@H](O1)C1=C(O2)C(=O)c2ccccc2C1=O | inactive: -1.61% [at 11.5 µM] | 
CSCCC(NC(=O)c1ccco1)c1nc2ccccc2[nH]1 (stereo not given) | inactive: -1.76% | 
Cc1c(Cl)cccc1NC(=O)CSc1ccc(-c2ccccn2)nn1 | inactive: -6.4% | 
CC(=O)Oc1ccc(/C=c2\sc3ncnn3c2=O)cc1 |  | inconclusive: 37.9 µM [inhibitor, partial curve, poor fit]
CCOc1ccc(NC(=O)COC(=O)c2ccc3c(c2)C(=O)N(CCc2ccccc2)C3=O)cc1 |  | inconclusive: 23.9 µM [inhibitor, single point]
COc1ccc(-c2csc(NC(=O)c3cccc(S(=O)(=O)N4CCN(C)CC4)c3)n2)cc1 |  | inconclusive: 37.9 µM [inhibitor, partial curve, poor fit]
COc1ccccc1NC(=O)/C=C1\SCC(=O)N1C |  | inconclusive: 26.9 µM [inhibitor, partial curve, poor fit]
COc1cccc(CC(=O)Nc2ccc(-c3nc4ccccc4s3)cc2Cl)c1 |  | inconclusive: 16.9 µM [inhibitor, partial curve]
CCOc1cc(CNC(=O)C2CCN(c3nc4ccccc4[nH]3)CC2)cc(OCC)c1OCC |  | inconclusive: 13.5 µM [inhibitor, partial curve, poor fit]
O=C(O)COc1ccccc1/C=N/NC(=O)CSc1nc2ccccc2s1 |  | inconclusive: 42.6 µM [inhibitor, partial curve, poor fit]
CSc1nc(SCC(=O)O)c2c3c(sc2n1)COC(C)(C)C3 |  | inconclusive: 37.9 µM [inhibitor, partial curve, poor fit]
Brc1ccccc1-n1nnc(-c2nccs2)n1 |  | active: 7.57 µM

Compound | activity change, negative = inhibition | Potency
CCN1CCN(c2ccc(NC(=O)CCc3c(C)nc4c(-c5ccc(F)cc5)c(C)nn4c3C)cc2)CC1 | inactive: -3.71% | 
CC(NC(=O)CCc1ccccc1)c1ccc2c(c1)OCO2 (stereo not given) | inactive: -3.13% | 
C(=N\N(c1ccccc1)c1ccccc1)/c1ccc(N2CCOCC2)s1 |  | inconclusive: 21.3 µM [inhibitor, partial curve, poor fit]
COc1ccc(-c2csc(Nc3cccnc3)n2)cc1OC |  | active: 2.39 µM
Cc1ncn(-c2ccc(C(=O)Oc3ccccc3)cn2)n1 |  | inconclusive: 21.3 µM [inhibitor, partial curve, poor fit]
Cc1ccc(NC(=O)CNc2ccc(OC(C)C)cc2)c(C)c1 |  | inconclusive: 16.9 µM [inhibitor, partial curve, poor fit]
N#CCC(=O)Nc1ccc(C(=O)OCC(=O)c2ccc3c(c2)OCO3)cc1 |  | inconclusive: 15.1 µM [inhibitor, partial curve, poor fit]
O=C(O)CCCCCNC(=O)c1ccccc1 |  | inconclusive: 37.9 µM [inhibitor, partial curve, poor fit]
CCN(C(=O)Cn1c(=O)oc2cc(S(=O)(=O)N3CCCCC3)ccc21)c1ccccc1 | inactive: -6.51% | 
O=C(COC(=O)C1CC1)Nc1ccc(OC(F)F)cc1 |  | inconclusive: 16.9 µM [inhibitor, partial curve]
CCc1cccc(NC(=O)CCc2c(C)nc3c(-c4ccccc4)c(C)nn3c2C)c1 |  | inconclusive: 8.49 µM [inhibitor, partial curve, poor fit]
CCOc1ccc(C(=S)NC2CCCCC2)cc1 |  | active: 12 µM
O=C(Nc1ccc2nc(-c3ccco3)[nH]c2c1)c1ccco1 |  | active: 7.57 µM
COc1ccc(NC(=O)c2cc(-c3ccccc3Cl)on2)cc1 |  | active: 8.49 µM
COc1ccc(CCC(=O)Nc2nc3ccccc3[nH]2)cc1OC | inactive: 1.44% | 
COCc1nnc(NC(=O)c2ccc(OC)cc2OC)s1 |  | active: 8.49 µM
O=C(NCCc1c[nH]c2ccccc12)c1cnc2n(c1=O)CCS2 |  | inconclusive: 21.3 µM [inhibitor, partial curve]
CC(C)C(=O)Nc1cccc(C(=O)Nc2cc([N+](=O)[O-])ccc2F)c1 |  | inconclusive: 37.9 µM [inhibitor, partial curve, poor fit]
CCc1c(C)sc(NC(=O)c2ccco2)c1C#N |  | active: 16.9 µM
Clc1ccc(OCc2cn3cccnc3n2)c2ncccc12 |  | inconclusive: 16.9 µM [inhibitor, partial curve]
CCc1nc(SCC(=O)OC)c2c3c(sc2n1)COC(C)(C)C3 |  | inconclusive: 37.9 µM [inhibitor, partial curve, poor fit]
Cc1cc(C)nc(NS(=O)(=O)c2ccc(NC(=O)c3snnc3C)cc2)n1 | inactive: -2.71% | 
CC1(C)CC(=O)c2sc(NC(=O)C(C)(C)C)nc2C1 |  | inconclusive: 26.9 µM [inhibitor, partial curve]
C/C(O)=C\c1nc2ccccc2oc1=O | inactive: 2.42% | 

Compound | activity change, negative = inhibition | Potency
Cc1nnc(NC(=O)c2cc(-c3ccco3)nc3ccccc23)s1 |  | inconclusive: 15.1 µM [inhibitor, partial curve]
O=C(N/N=C/c1ccncc1)C1C2CCCCCCC21 (stereo not given) |  | inconclusive: 37.9 µM [inhibitor, single point]
COC(=O)CN1C(=O)CSc2ccc(S(=O)(=O)Nc3cccc(C)c3)cc21 | inactive: -13.2% | 
CCc1ccc(NC(=O)CSc2ccc(-c3cccnc3)nn2)cc1 |  | inconclusive: 12 µM [inhibitor, partial curve, poor fit]
COC(=O)COc1cccc(NC(=O)c2cccs2)c1 |  | inconclusive: 23.9 µM [inhibitor, single point]
Cc1cccc(C(=O)Nc2nc3nc(-c4ccccc4)cc(=O)n3[nH]2)c1 |  | inconclusive: 10.7 µM [inhibitor, partial curve]
Cc1ccccc1CSCC(=O)N1CCN(c2ccccc2)CC1 |  | inconclusive: 37.9 µM [inhibitor, single point]
COc1ccc(N/C(=C(/C(Cl)=C(Cl)Cl)[N+](=O)[O-])n2nnc3ccccc32)cc1 |  | inconclusive: 21.3 µM [inhibitor, partial curve, poor fit]
CN1CCN(/N=C/c2ccc(Br)cc2)CC1 |  | inconclusive: 21.3 µM [inhibitor, single point]
Cc1nc2nc(-c3cccnc3)[nH]n2c(=O)c1C |  | inconclusive: 23.9 µM [inhibitor, partial curve, poor fit]
Cn1cc(Br)c(C(=O)Nc2sc3c(c2C#N)CCC3)n1 |  | inconclusive: 9.53 µM [inhibitor, partial curve]
O=C(OCc1ccccc1F)c1cc2ccccc2cc1O |  | inconclusive: 37.9 µM [inhibitor, partial curve, poor fit]
O=C1C2=C(C(=O)c3ccccc31)C1O[C@](c3ccsc3)(Cc3c1ccc1ccccc31)O2 |  | inconclusive: 3.47 µM [inhibitor, single point]
Cc1ccsc1/C=N/NC(=O)c1ccc2nc[nH]c2c1 |  | inconclusive: 16.9 µM [inhibitor, partial curve]
CCOc1cccc2cc(C(=O)N3CCOCC3)c(=O)oc12 | inactive: 5.47% | 
Cc1ccc(/C=N/n2cnc3sc(-c4ccccc4)cc3c2=O)o1 |  | inconclusive: 16.9 µM [inhibitor, partial curve]
COc1ccc(C(=O)Nn2c(SCc3ccc([N+](=O)[O-])cc3)nc3ccccc3c2=O)cc1 |  | active: 12 µM
COc1ccc(OC)c(N2CC(O)=C(c3nc4ccccc4s3)C2=N)c1 |  | inconclusive: 10.7 µM [inhibitor, partial curve, poor fit]
COCC(=O)N(C)c1nnc(-c2ccccn2)s1 |  | inconclusive: 33.8 µM [inhibitor, partial curve, poor fit]
CC(C)(C)c1cccc(Oc2nn[nH]n2)c1 |  | inconclusive: 37.9 µM [inhibitor, single point]
COc1cccc(-c2cc(C(=O)NCc3cccs3)no2)c1 |  | active: 4.78 µM
Cc1c(C(=O)N2CCCC(C(F)(F)F)C2)oc2ccccc12 (stereo not given) |  | inconclusive: 19 µM [inhibitor, partial curve, poor fit]

From PubChem BioAssay AID588342 (National Center for Advancing Translational Sciences (NCATS), 2011)
